Some of the results follow.

The experiment concerns the target T1, MBP-FoxP1dN (Mus musculus, UniProt P58462 326-579).
T1 sequence: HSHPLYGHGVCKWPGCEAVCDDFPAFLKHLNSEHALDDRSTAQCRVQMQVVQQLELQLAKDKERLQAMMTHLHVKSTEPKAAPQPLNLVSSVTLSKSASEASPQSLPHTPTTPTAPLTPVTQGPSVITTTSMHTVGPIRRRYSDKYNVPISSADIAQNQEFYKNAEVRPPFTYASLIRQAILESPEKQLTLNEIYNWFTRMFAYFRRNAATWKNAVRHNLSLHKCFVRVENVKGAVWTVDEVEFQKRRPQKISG
Description: PD-seq (MBP pull-down with sequencing); 20 mM Tris-HCl pH 7.5, 100 mM NaCl, 1.5 mM MgCl2, 0.4 uM protein, 0.1 uM dsDNA library, 30 min, room temperature, amylose pull-down; high values mean tight binding. The settings on record: protein: recombinant; tags: His6-MBP; chain copies: 2; dsDNA, one strand shown. In outline: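 Amylose resin was used to capture complexes formed during 30 min at room temperature in Tris pH 7.5 buffer with NaCl and MgCl2 between 0.4 µM His6-MBP-tagged mouse FoxP3 or FoxP1 fragment lacking the N-terminus, expressed in E. coli, and 0.1 µM Klenow-filled double-stranded degenerate DNA library. After three washes, the DNA was released with proteinase K, barcoded by PCR and sequenced on Illumina. Binding is pooled-replicate reads-per-million enrichment, pull-down over input.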
In the case of “GATGATTGTTCTCCCAGCTGATGAATTCTTCGCATCGAGTAAACAAATTTTCCTAATCTTTCTGTTCAAGCGCCATCTAC”, the binding signal is 1.12 RPM ratio (pull-down/input).
Regarding “GATGATTGTTCTCCCAGCTGATGAATTGATTGCATCGAGTAAACAAATTTTCCTAATCTTTCTGTTCAAGCGCCATCTAC”, the binding signal is 1.53 RPM ratio (pull-down/input).
Consider “GATGATTGTTCTCCCAGCTGATGAATTGCGTCAGTCGAGTAAACAAATTTTCCTAATCTTTCTGTTCAAGCGCCATCTAC”, for which the binding signal was 1.02 RPM ratio (pull-down/input).
With “GATGATTGTTCTCCCAGCTGATGAATTTAGGATATCGAGTAAACAAATTTTCCTAATCTTTCTGTTCAAGCGCCATCTAC”, the binding signal is 1.02 RPM ratio (pull-down/input).
With “GATGATTGTTCTCCCAGCTGATGAATTATAAATGTCGAGTAAACAAATTTTCCTAATCTTTCTGTTCAAGCGCCATCTAC”, the binding signal was 1.11 RPM ratio (pull-down/input).
Then “GATGATTGTTCTCCCAGCTGATGAATTTCTATGGTCGAGTAAACAAATTTTCCTAATCTTTCTGTTCAAGCGCCATCTAC”, with 0.86 RPM ratio (pull-down/input); and “GATGATTGTTCTCCCAGCTGATGAATTTCCCATGTCGAGTAAACAAATTTTCCTAATCTTTCTGTTCAAGCGCCATCTAC”, with 0.83 RPM ratio (pull-down/input); and “GATGATTGTTCTCCCAGCTGATGAATTAGGGTTTTCGAGTAAACAAATTTTCCTAATCTTTCTGTTCAAGCGCCATCTAC”, with 0.936 RPM ratio (pull-down/input).
On to “GATGATTGTTCTCCCAGCTGATGAATTTGCCCTCTCGAGTAAACAAATTTTCCTAATCTTTCTGTTCAAGCGCCATCTAC”, for which the binding signal was 0.831 RPM ratio (pull-down/input).
As to “GATGATTGTTCTCCCAGCTGATGAATTAAATAGTTCGAGTAAACAAATTTTCCTAATCTTTCTGTTCAAGCGCCATCTAC”, the binding signal is 1.11 RPM ratio (pull-down/input).
On to “GATGATTGTTCTCCCAGCTGATGAATTCTTGCCGTCGAGTAAACAAATTTTCCTAATCTTTCTGTTCAAGCGCCATCTAC”, for which the binding signal was 0.893 RPM ratio (pull-down/input).
On to “GATGATTGTTCTCCCAGCTGATGAATTATATAGGTCGAGTAAACAAATTTTCCTAATCTTTCTGTTCAAGCGCCATCTAC”, for which the binding signal was 0.935 RPM ratio (pull-down/input).
For the sequence “GATGATTGTTCTCCCAGCTGATGAATTACTCGCCTCGAGTAAACAAATTTTCCTAATCTTTCTGTTCAAGCGCCATCTAC”, the binding signal was 1.04 RPM ratio (pull-down/input).
As for “GATGATTGTTCTCCCAGCTGATGAATTAATAAGTTCGAGTAAACAAATTTTCCTAATCTTTCTGTTCAAGCGCCATCTAC”, the binding signal is 1.01 RPM ratio (pull-down/input).
Take “GATGATTGTTCTCCCAGCTGATGAATTCAAATTCTCGAGTAAACAAATTTTCCTAATCTTTCTGTTCAAGCGCCATCTAC”: the binding signal was 0.874 RPM ratio (pull-down/input).
As for “GATGATTGTTCTCCCAGCTGATGAATTCACACACTCGAGTAAACAAATTTTCCTAATCTTTCTGTTCAAGCGCCATCTAC”, the binding signal is 0.9 RPM ratio (pull-down/input).
Consider “GATGATTGTTCTCCCAGCTGATGAATTGGTCAAGTCGAGTAAACAAATTTTCCTAATCTTTCTGTTCAAGCGCCATCTAC”, for which the binding signal is 0.891 RPM ratio (pull-down/input).
“GATGATTGTTCTCCCAGCTGATGAATTCAGCAGATCGAGTAAACAAATTTTCCTAATCTTTCTGTTCAAGCGCCATCTAC”: the binding signal is 0.815 RPM ratio (pull-down/input).
As for “GATGATTGTTCTCCCAGCTGATGAATTGGTTATGTCGAGTAAACAAATTTTCCTAATCTTTCTGTTCAAGCGCCATCTAC”, the binding signal is 1.06 RPM ratio (pull-down/input).
With “GATGATTGTTCTCCCAGCTGATGAATTAAGGGGCTCGAGTAAACAAATTTTCCTAATCTTTCTGTTCAAGCGCCATCTAC”, the binding signal was 0.833 RPM ratio (pull-down/input).
“GATGATTGTTCTCCCAGCTGATGAATTATCGATCTCGAGTAAACAAATTTTCCTAATCTTTCTGTTCAAGCGCCATCTAC”: the binding signal is 0.931 RPM ratio (pull-down/input).
In the case of “GATGATTGTTCTCCCAGCTGATGAATTCGCGACCTCGAGTAAACAAATTTTCCTAATCTTTCTGTTCAAGCGCCATCTAC”, the binding signal was 0.815 RPM ratio (pull-down/input).
Under “GATGATTGTTCTCCCAGCTGATGAATTACGGCTGTCGAGTAAACAAATTTTCCTAATCTTTCTGTTCAAGCGCCATCTAC” stands 0.915 RPM ratio (pull-down/input); under “GATGATTGTTCTCCCAGCTGATGAATTGATAACTTCGAGTAAACAAATTTTCCTAATCTTTCTGTTCAAGCGCCATCTAC”, 1.09 RPM ratio (pull-down/input); under “GATGATTGTTCTCCCAGCTGATGAATTAGCAAGATCGAGTAAACAAATTTTCCTAATCTTTCTGTTCAAGCGCCATCTAC”, 0.939 RPM ratio (pull-down/input).
Under “GATGATTGTTCTCCCAGCTGATGAATTCTACTCATCGAGTAAACAAATTTTCCTAATCTTTCTGTTCAAGCGCCATCTAC” stands 0.906 RPM ratio (pull-down/input); under “GATGATTGTTCTCCCAGCTGATGAATTTCGATTGTCGAGTAAACAAATTTTCCTAATCTTTCTGTTCAAGCGCCATCTAC”, 1.08 RPM ratio (pull-down/input).
Consider “GATGATTGTTCTCCCAGCTGATGAATTTGGCGAATCGAGTAAACAAATTTTCCTAATCTTTCTGTTCAAGCGCCATCTAC”, for which the binding signal is 0.94 RPM ratio (pull-down/input).
As to “GATGATTGTTCTCCCAGCTGATGAATTCCAAGCCTCGAGTAAACAAATTTTCCTAATCTTTCTGTTCAAGCGCCATCTAC”, the binding signal was 0.772 RPM ratio (pull-down/input).
Turning to “GATGATTGTTCTCCCAGCTGATGAATTAATTAGGTCGAGTAAACAAATTTTCCTAATCTTTCTGTTCAAGCGCCATCTAC”, the binding signal was 0.993 RPM ratio (pull-down/input).
For “GATGATTGTTCTCCCAGCTGATGAATTGTGCCACTCGAGTAAACAAATTTTCCTAATCTTTCTGTTCAAGCGCCATCTAC”, the binding signal is 1.09 RPM ratio (pull-down/input).

Values taken from article PMC12820563, “FoxP3 forms a head-to-head dimer in vivo and stabilizes its multimerization on adjacent microsatellites”.
